Results: patent US20260297081A1, “COMPOUNDS AND METHODS OF TREATING CANCERS” (Cullgen Inc., priority 2023, published 2026)
At least one read-out could not be matched to a standard name with certainty.

Tested on: CyclinD1 (CCND1)
Test: Cyclin D1 (CCND1) percentage degradation in Calu-1 cells (Table 6)
Format: cell-based
Details: 16 hours

Row | SMILES | CyclinD1 Degradation (40 nM) | CyclinD1 Degradation (200 nM)
1 | CNc1ccc(C(=O)Nc2cccc(N)n2)c(NC2CC3(CC(NC(=O)CN4CCN(c5ccc(Nc6ncc7c(C)c(C(C)=O)c(=O)n(C8CCCC8)c7n6)nc5)CC4)C3)C2)n1 (centres unmarked) [CPD-180, 2-((6-(2-(4-(6-((6-acetyl-8-cyclopentyl-5-methyl-7-oxo-7,8-dihydropyrido[2,3-d]pyrimidin-2-yl)amino)pyridin-3-yl)piperazin-1-yl)acetamido)spiro[3.3]heptan-2-yl)amino)-N-(6-aminopyridin-2-yl)-6-(methylamino)nicotinamide] | A (degradation activity >80%) | A (degradation activity >80%)
2 | CNc1cccc(NC(=O)c2ccc(NC)nc2NC2CC3(CC(NC(=O)CN4CCN(c5ccc(Nc6ncc7c(C)c(C(C)=O)c(=O)n(C8CCCC8)c7n6)nc5)CC4)C3)C2)n1 (centres unmarked) [CPD-181, 2-((6-(2-(4-(6-((6-acetyl-8-cyclopentyl-5-methyl-7-oxo-7,8-dihydropyrido[2,3-d]pyrimidin-2-yl)amino)pyridin-3-yl)piperazin-1-yl)acetamido)spiro[3.3]heptan-2-yl)amino)-6-(methylamino)-N-(6-(methylamino)pyridin-2-yl)nicotinamide] | A (degradation activity >80%) | A (degradation activity >80%)
3 | CNc1ccc(C(=O)Nc2ccc(C)c(C)n2)c(NC2CC3(CC(NC(=O)CN4CCN(c5ccc(Nc6ncc7c(C)c(C(C)=O)c(=O)n(C8CCCC8)c7n6)nc5)CC4)C3)C2)n1 (centres unmarked) [CPD-182, 2-((6-(2-(4-(6-((6-acetyl-8-cyclopentyl-5-methyl-7-oxo-7,8-dihydropyrido[2,3-d]pyrimidin-2-yl)amino)pyridin-3-yl)piperazin-1-yl)acetamido)spiro[3.3]heptan-2-yl)amino)-N-(5,6-dimethylpyridin-2-yl)-6-(methylamino)nicotinamide] | D (degradation activity <30%) | A (degradation activity >80%)
4 | CNc1ccc(C(=O)Nc2ccn(C)c2)c(NC2CC3(CC(NC(=O)CN4CCN(c5ccc(Nc6ncc7c(C)c(C(C)=O)c(=O)n(C8CCCC8)c7n6)nc5)CC4)C3)C2)n1 (centres unmarked) [CPD-183, 2-((6-(2-(4-(6-((6-acetyl-8-cyclopentyl-5-methyl-7-oxo-7,8-dihydropyrido[2,3-d]pyrimidin-2-yl)amino)pyridin-3-yl)piperazin-1-yl)acetamido)spiro[3.3]heptan-2-yl)amino)-N-(1-methyl-1H-pyrrol-3-yl)-6-(methylamino)nicotinamide] | D (degradation activity <30%) | B (50%< degradation activity <80%)
5 | CNc1ccc(C(=O)Nc2cccc(C(F)F)n2)c(NC2CC3(CC(NC(=O)CN4CCN(c5ccc(Nc6ncc7c(C)c(C(C)=O)c(=O)n(C8CCCC8)c7n6)nc5)CC4)C3)C2)n1 (centres unmarked) [CPD-184, 2-((6-(2-(4-(6-((6-acetyl-8-cyclopentyl-5-methyl-7-oxo-7,8-dihydropyrido[2,3-d]pyrimidin-2-yl)amino)pyridin-3-yl)piperazin-1-yl)acetamido)spiro[3.3]heptan-2-yl)amino)-N-(6-(difluoromethyl)pyridin-2-yl)-6-(methylamino)nicotinamide] | D (degradation activity <30%) | B (50%< degradation activity <80%)
6 | CNc1ccc(C(=O)Nc2ccc(N(C)C)nn2)c(NC2CC(CCC(=O)N3CCN(c4ccc(Nc5ncc6c(C)c(C(C)=O)c(=O)n(C7CCCC7)c6n5)nc4)CC3)C2)n1 (centres unmarked) [CPD-185, 2-((3-(3-(4-(6-((6-acetyl-8-cyclopentyl-5-methyl-7-oxo-7,8-dihydropyrido[2,3-d]pyrimidin-2-yl)amino)pyridin-3-yl)piperazin-1-yl)-3-oxopropyl)cyclobutyl)amino)-N-(6-(dimethylamino)pyridazin-3-yl)-6-(methylamino)nicotinamide] | C (30%< degradation activity <50%) | A (degradation activity >80%)
7 | CNc1ccc(C(=O)Nc2ccc(N(C)C)nn2)c(NC2CN(C(=O)CCN3CCN(c4ccc(Nc5ncc6c(C)c(C(C)=O)c(=O)n(C7CCCC7)c6n5)nc4)CC3)C2)n1 [CPD-186, 2-((1-(3-(4-(6-((6-acetyl-8-cyclopentyl-5-methyl-7-oxo-7,8-dihydropyrido[2,3-d]pyrimidin-2-yl)amino)pyridin-3-yl)piperazin-1-yl)propanoyl)azetidin-3-yl)amino)-N-(6-(dimethylamino)pyridazin-3-yl)-6-(methylamino)nicotinamide] | A (degradation activity >80%) | A (degradation activity >80%)
8 | CNc1ccc(C(=O)Nc2ccc(N(C)C)nn2)c(NC2CN(C(=O)CN3CCN(c4ccc(Nc5ncc6c(C)c(C(C)=O)c(=O)n(C7CCCC7)c6n5)nc4)CC3)C2)n1 [CPD-187, 2-((1-(2-(4-(6-((6-acetyl-8-cyclopentyl-5-methyl-7-oxo-7,8-dihydropyrido[2,3-d]pyrimidin-2-yl)amino)pyridin-3-yl)piperazin-1-yl)acetyl)azetidin-3-yl)amino)-N-(6-(dimethylamino)pyridazin-3-yl)-6-(methylamino)nicotinamide] | D (degradation activity <30%) | A (degradation activity >80%)
9 | CNc1ccc(C(=O)Nc2ccc(N(C)C)nn2)c(NCC2CC(CNC(=O)CN3CCN(c4ccc(Nc5ncc6c(C)c(C(C)=O)c(=O)n(C7CCCC7)c6n5)nc4)CC3)C2)n1 (centres unmarked) [CPD-188, 2-(((3-((2-(4-(6-((6-acetyl-8-cyclopentyl-5-methyl-7-oxo-7,8-dihydropyrido[2,3-d]pyrimidin-2-yl)amino)pyridin-3-yl)piperazin-1-yl)acetamido)methyl)cyclobutyl)methyl)amino)-N-(6-(dimethylamino)pyridazin-3-yl)-6-(methylamino)nicotinamide] | A (degradation activity >80%) | A (degradation activity >80%)
10 | CNc1ccc(C(=O)Nc2ccc(N(C)C)nn2)c(NC2CC3(C2)CC(OC(C)C(=O)N2CCN(c4ccc(Nc5ncc6c(C)c(C(C)=O)c(=O)n(C7CCCC7)c6n5)nc4)CC2)C3)n1 (centres unmarked) [CPD-189, 2-((6-((1-(4-(6-((6-acetyl-8-cyclopentyl-5-methyl-7-oxo-7,8-dihydropyrido[2,3-d]pyrimidin-2-yl)amino)pyridin-3-yl)piperazin-1-yl)-1-oxopropan-2-yl)oxy)spiro[3.3]heptan-2-yl)amino)-N-(6-(dimethylamino)pyridazin-3-yl)-6-(methylamino)nicotinamide] | A (degradation activity >80%) | A (degradation activity >80%)
11 | CC(=O)c1c(C)c2cnc(Nc3ccc(N4CCN(CC(=O)NC5CC6(C5)CC(Nc5nc(NC(C)C)ccc5C(=O)Nc5cccc(C)n5)C6)CC4)cn3)nc2n(C2CCCC2)c1=O (centres unmarked) [CPD-190, 2-((6-(2-(4-(6-((6-acetyl-8-cyclopentyl-5-methyl-7-oxo-7,8-dihydropyrido[2,3-d]pyrimidin-2-yl)amino)pyridin-3-yl)piperazin-1-yl)acetamido)spiro[3.3]heptan-2-yl)amino)-6-(isopropylamino)-N-(6-methylpyridin-2-yl)nicotinamide] | A (degradation activity >80%) | A (degradation activity >80%)
12 | CC(=O)c1c(C)c2cnc(Nc3ccc(N4CCN(CC(=O)NC5CC6(C5)CC(Nc5nc(C)ccc5C(=O)Nc5cccc(C)n5)C6)CC4)cn3)nc2n(C2CCCC2)c1=O (centres unmarked) [CPD-191, 2-((6-(2-(4-(6-((6-acetyl-8-cyclopentyl-5-methyl-7-oxo-7,8-dihydropyrido[2,3-d]pyrimidin-2-yl)amino)pyridin-3-yl)piperazin-1-yl)acetamido)spiro[3.3]heptan-2-yl)amino)-6-methyl-N-(6-methylpyridin-2-yl)nicotinamide] | D (degradation activity <30%) | A (degradation activity >80%)
13 | CC(=O)c1c(C)c2cnc(Nc3ccc(N4CCN(CC(=O)NC5CC6(C5)CC(Nc5nc(C)ccc5C(=O)Nc5cc(C)on5)C6)CC4)cn3)nc2n(C2CCCC2)c1=O (centres unmarked) [CPD-192, ((6-(2-(4-(6-((6-acetyl-8-cyclopentyl-5-methyl-7-oxo-7,8-dihydropyrido[2,3-d]pyrimidin-2-yl)amino)pyridin-3-yl)piperazin-1-yl)acetamido)spiro[3.3]heptan-2-yl)amino)-6-methyl-N-(5-methylisoxazol-3-yl)nicotinamide] | D (degradation activity <30%) | D (degradation activity <30%)
14 | CNc1ccc(C(=O)Nc2ccc(N(C)C)nn2)c(NC[C@H]2CC[C@@H](NC(=O)CN3CCN(c4ccc(Nc5ncc6c(C)c(C(C)=O)c(=O)n(C7CCCC7)c6n5)nc4)CC3)CC2)n1 [CPD-193, 2-(((cis-4-(2-(4-(6-((6-acetyl-8-cyclopentyl-5-methyl-7-oxo-7,8-dihydropyrido[2,3-d]pyrimidin-2-yl)amino)pyridin-3-yl)piperazin-1-yl)acetamido)cyclohexyl)methyl)amino)-N-(6-(dimethylamino)pyridazin-3-yl)-6-(methylamino)nicotinamide] | A (degradation activity >80%) | A (degradation activity >80%)
15 | CNc1ccc(C(=O)Nc2ccc(N(C)C)nn2)c(NC(=O)CN2CCN(c3ccc(Nc4ncc5c(C)c(C(C)=O)c(=O)n(C6CCCC6)c5n4)nc3)CC2)n1 [CPD-194, 2-(2-(4-(6-((6-acetyl-8-cyclopentyl-5-methyl-7-oxo-7,8-dihydropyrido[2,3-d]pyrimidin-2-yl)amino)pyridin-3-yl)piperazin-1-yl)acetamido)-N-(6-(dimethylamino)pyridazin-3-yl)-6-(methylamino)nicotinamide] | D (degradation activity <30%) | D (degradation activity <30%)
16 | CNc1ccc(C(=O)Nc2cn(C)c(C(C)C)n2)c(NC2CC3(CC(NC(=O)CN4CCN(c5ccc(Nc6ncc7c(C)c(C(C)=O)c(=O)n(C8CCCC8)c7n6)nc5)CC4)C3)C2)n1 (centres unmarked) [CPD-195, 2-((6-(2-(4-(6-((6-acetyl-8-cyclopentyl-5-methyl-7-oxo-7,8-dihydropyrido[2,3-d]pyrimidin-2-yl)amino)pyridin-3-yl)piperazin-1-yl)acetamido)spiro[3.3]heptan-2-yl)amino)-N-(2-isopropyl-1-methyl-1H-imidazol-4-yl)-6-(methylamino)nicotinamide] | C (30%< degradation activity <50%) | A (degradation activity >80%)
